Experimental data: PubChem BioAssay (NCATS)
Several values for one entry are separate records, joined by “and”; a condition that tells them apart may be missing. Identical values can stand only once. Inconclusive means that the source gave no clear call. Such entries were picked first, then a sample of the others. For some of these results: Potencies of inconclusive entries are doubtful fits and often do not repeat. Where a structure was tested more than once in an assay, its records may differ in their call. Activity calls are given as the source filed them. Calls come from the whole dose curve; as a rule, active = well fitted cell-killing curve with a large enough effect; inconclusive = small, poorly fitted or top-dose-only effect, or effect the other way; inactive = flat fitted curve, though single readings scatter.

What was measured:
Test in all cases: Primary qHTS to identify gynecologic anti-cancer compounds using libraries of approved drugs and bioactive compounds (AID 1345084); note: nearly all actives have a fitted effect of over 55% in size
Hek293T = conditions: Gynecologic cancer cell panel viability, ATPlite luminescence, 48 h, control line for the selectivity index; series mostly up to 57.5 µM
Method in brief: (§1)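 ATP-based viability (ATPlite), 1,000 cells/well, 16 h pre-incubation, 48 h compound at 37 C, 5% CO2, 15 min RT before read.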

JEG-3 = conditions: Gynecologic cancer cell panel viability, ATPlite luminescence, 48 h; series mostly up to 57.5 µM
Method in brief: as §1

SKOV3 = conditions: Gynecologic cancer cell panel viability, ATPlite luminescence, 48 h; series mostly up to 57.5 µM
Method in brief: as §1

Tov-21-G = conditions: Gynecologic cancer cell panel viability, ATPlite luminescence, 48 h; series mostly up to 57.5 µM
Method in brief: as §1

PA-1 = conditions: Gynecologic cancer cell panel viability, ATPlite luminescence, 48 h; series mostly up to 57.5 µM
Method in brief: as §1

OV90 = conditions: Gynecologic cancer cell panel viability, ATPlite luminescence, 48 h; series mostly up to 57.5 µM
Method in brief: as §1

Tov112D = conditions: Gynecologic cancer cell panel viability, ATPlite luminescence, 48 h; series mostly up to 57.5 µM
Method in brief: as §1
Potency is the fitted concentration of half-maximal effect; tags give direction and shape of the fitted curve.

| SMILES | Potency (Hek293T) | Potency (JEG-3) | Potency (SKOV3) | Potency (Tov-21-G) | Potency (PA-1) | Potency (OV90) | Potency (Tov112D) |
| --- | --- | --- | --- | --- | --- | --- | --- |
| COCc1c(C(C)C)nc(C(C)C)c(/C=C/[C@@H](O)C[C@@H](O)CC(=O)O)c1-c1ccc(F)cc1 | inconclusive: 2.51 µM [cytotoxic, full curve] | inconclusive: 8.91 µM [cytotoxic, full curve, poor fit] | inconclusive: 8.91 µM [cytotoxic, partial curve, poor fit] | active: 7.08 µM |  |  |  |
| COc1cc2c(Nc3ccc(Br)cc3F)ncnc2cc1OCC1CCN(C)CC1 | inconclusive: 39.8 µM [cytotoxic, single point] | active: 28.2 µM | inactive and active: 12.6 µM | inconclusive: 14.1 µM [cytotoxic, partial curve, poor fit] | inactive and inconclusive: 31.6 µM [cytotoxic, partial curve, poor fit] |  |  |
| COC(=O)[C@@H]1[C@H]2C[C@H]3c4[nH]c5ccccc5c4CCN3C[C@@H]2CC[C@@H]1O | inactive | inactive | inconclusive: 20 µM [cytotoxic, single point] |  | inactive |  |  |
| COc1cc(Nc2ncc(F)c(Nc3ccc4c(n3)N(COP(=O)(O)O)C(=O)C(C)(C)O4)n2)cc(OC)c1OC | inconclusive: 15.8 µM [cytotoxic, partial curve, poor fit] | inconclusive: 35.5 µM [cytotoxic, single point] | active: 10 µM | active: 14.1 µM |  | active: 12.6 µM | inconclusive: 10 µM [cytotoxic, partial curve] |
| C[C@H]1O[C@@H](O[C@H]2[C@@H](O)C[C@H](O[C@H]3[C@@H](O)C[C@H](O[C@H]4CC[C@@]5(C)[C@H](CC[C@@H]6[C@@H]5C[C@@H](O)[C@]5(C)[C@@H](C7=CC(=O)OC7)CC[C@]65O)C4)O[C@@H]3C)O[C@@H]2C)C[C@H](O)[C@@H]1O | active: 0.316 µM | inconclusive: 0.282 µM [cytotoxic, full curve, poor fit] | inconclusive: 0.282 µM [cytotoxic, full curve, poor fit] |  | active: 0.282 µM |  | inconclusive: 0.0251 µM |
| Nc1ncn([C@@H]2O[C@H](CO)[C@@H](O)[C@H]2O)c(=O)n1 | inconclusive: 7.94 µM [cytotoxic, partial curve] | active: 10 µM | inconclusive: 1.58 µM [cytotoxic, single point] | active: 12.6 µM |  |  | inconclusive: 3.55 µM [cytotoxic, full curve] |
| Oc1c(Cl)cc(Cl)c(Cl)c1Cc1c(O)c(Cl)cc(Cl)c1Cl | active: 8.91 µM | inconclusive: 7.94 µM [rising, single point] | inconclusive: 39.8 µM [cytotoxic, single point] |  | active: 11.2 µM |  | inconclusive: 14.1 µM [cytotoxic, partial curve] |
| CC(=O)O[C@H]1C(=O)[C@@]2(C)[C@H]([C@H](OC(=O)c3ccccc3)[C@]3(O)C[C@H](OC(=O)[C@H](O)[C@@H](NC(=O)c4ccccc4)c4ccccc4)C(C)=C1C3(C)C)[C@]1(OC(C)=O)CO[C@@H]1C[C@@H]2O | inconclusive: 0.1 µM [cytotoxic, full curve] | inconclusive: 0.0282 µM [cytotoxic, full curve, poor fit] |  | inconclusive: 0.0316 µM [cytotoxic, full curve, poor fit] | inconclusive: 0.0447 µM |  | inconclusive: 0.0355 µM [cytotoxic, full curve, poor fit] |
| CCOC(=O)C1=C(C)NC2=C(C(=O)CC(C)(C)C2)C1c1ccc(-c2ccccc2)cc1 (centres undefined) | active: 28.2 µM | inactive | active: 10 µM | inconclusive: 35.5 µM [cytotoxic, single point] | inconclusive: 28.2 µM [cytotoxic, single point] |  |  |
| O=C1NCN(c2ccccc2)C12CCN(CCCC(c1ccc(F)cc1)c1ccc(F)cc1)CC2 | inconclusive: 39.8 µM [cytotoxic, single point] | active: 31.6 µM | inconclusive: 39.8 µM [cytotoxic, single point] |  | inconclusive: 39.8 µM [cytotoxic, single point] |  | inconclusive: 25.1 µM [cytotoxic, single point] |
